This is one part of the list. The main result of the screen is listed elsewhere. These columns were measured beside it and carry no call.
How the values were obtained:
Assay in all cases: Primary Screen for Target Class Profiling of Small Molecule Inhibitors of Methyltransferases
[1] = molecular target: Glycine N-methyltransferase (Homo sapiens) (UniProt Q14749); details: purified enzyme, MTase-Glo SAH luminescence; measured here: GNMT inhibition; at 40 µM; stronger effect = lower value
Method in brief: (§1)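 Each enzyme was assayed with SAM and its substrate. SAH formation detected by MTase-Glo luminescence; single-point 40 uM screen[…].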

[2] = molecular target: Guanidinoacetate N-methyltransferase (Homo sapiens) (UniProt Q14353); details: purified enzyme, MTase-Glo SAH luminescence; measured here: GAMT inhibition; at 40 µM; stronger effect = lower value
Method in brief: as §1

[3] = molecular target: Histamine N-methyltransferase (Homo sapiens) (UniProt P50135); details: purified enzyme, MTase-Glo SAH luminescence; measured here: HNMT inhibition; at 40 µM; stronger effect = lower value
Method in brief: as §1

[4] = molecular target: Nicotinamide N-methyltransferase (Homo sapiens) (UniProt P40261); details: purified enzyme, MTase-Glo SAH luminescence; measured here: NNMT inhibition; at 40 µM; stronger effect = lower value
Method in brief: as §1

[5] = molecular target: Phenylethanolamine N-methyltransferase (Homo sapiens) (UniProt P11086); details: purified enzyme, MTase-Glo SAH luminescence; measured here: PNMT inhibition; at 40 µM; stronger effect = lower value
Method in brief: as §1
% is set by controls: 0 for no effect and ±100 for the full control effect.

SMILES	activity change, negative = inhibition [1] [%]	activity change, negative = inhibition [2] [%]	activity change, negative = inhibition [3] [%]	activity change, negative = inhibition [4] [%]	activity change, negative = inhibition [5] [%]
CC1(C(=O)NC2CCCCCCC2)Cn2c(cc3sccc32)C(=O)N1CC1CCCO1 (stereo not given)	3.59	-1.6	7.52	4.46	2.34
Cc1nn2c(c1-c1ccnn1C(C)C)N(Cc1ccc3c(c1)CCO3)CCC2	-3.38	1.93	-0.157	-25.7	0.416
CCC1c2ccc(C)n2CCN1C(=O)Nc1ccc(OC)cc1OC (stereo not given)	-0.769	0	-1.6	6.58	3.48
Cc1cc(-c2nn(-c3ccccc3F)cc2CN(C)C(C)c2ccon2)c(C)s1 (stereo not given)	-2.29	-0.105	0.968	-5.56	-2.36
CC1CCCCN1CCN1C(=O)c2ccc(-c3ccco3)n2CC1(C)C(=O)NC1CCCCCCC1 (stereo not given)	-0.239	4.96	-0.481	-9.48	-1.56
COc1ccccc1-c1nnc2n(Cc3ccc(F)cc3)c(=O)c3ccccc3n12	-1.03	0.34	3.5	0.097	2.89
Cn1cc(CN2CCN3C(=O)N(C4CCCCC4)C[C@H]3C2)cn1	-1.92	-2.85	-1.58	-2.4	-6.33
CSc1ccc(CCNC(=O)Cn2ccc3cc(S(=O)(=O)N4CCCCC4)ccc32)cc1	-7.12	-4.66	-3.07	-11.1	-7.46
O=C(NC1(c2ccccc2)CC1)c1c(CN2CCC(N3CCCCC3)CC2)c(-c2cccc(C(F)(F)F)c2)nc2cc(Br)ccc12	0.275	-12.9	-16.6	-34.5	-22.3
CC1CCN(S(=O)(=O)c2ccc3c(ccn3CCC(=O)NC(C)c3ccccc3)c2)CC1 (stereo not given)	3.64	0	0.349	1.26	-1.48
CCc1cc2c(cc3n2CC(C)(C(=O)NC2CCCCC2)N(Cc2ccc(C)cc2)C3=O)s1 (stereo not given)	-5.17	-0.634	1.21	-0.035	-3.76
Nc1nc(NCCNc2ncc(-n3ccnc3)c(-c3ccc(Cl)cc3Cl)n2)ccc1[N+](=O)[O-]	-2.09	0.546	4.22	-53.4	-1.55
Cn1c(=O)c2ccc(C(=O)NC3CCCC3)cc2n2c(=O)n(Cc3cccc(F)c3)nc12	-0.383	1.99	-7.38	-2.99	-0.452
O=C1N(c2ccccc2)c2ccccc2C12CCN([S+](=O)([O-])c1cccc(C(F)(F)F)c1)C2 (stereo not given)	-6.07	-5.02	-2.39	-10.3	8.26
CC1CCC2(C(=O)OC3OC(COC4OC(CO)C(O)C(O)C4O)C(O)C(O)C3O)CCC3(C)C(=CCC4C5(C)CCC(O)C(C)(C(=O)O)C5CCC43C)C2C1(C)O (stereo not given)	3.88	1.4	4.97	-11.2	-4.74
CC(C)S(=O)(=O)N[C@H]1CCOC[C@@H]1c1ccc(-c2ccc(C#N)s2)cc1	-0.646	-3.49	9.72	-10.6	1.94
CCCn1ncc(CN2CCC(Cc3cccc(C(F)(F)F)c3)(C(=O)OCC)CC2)c1C	0.547	1.24	-3.69	-14	1.12
CC1C(=O)OCC2=CCN3CCC(OC(=O)C(C)(O)C1(C)O)C23 (stereo not given)	-2.18	-2.41	4.89	-12.2	-10.1
COc1ccc(-c2cc3n(n2)CC(C)(C(=O)NCc2ccccc2)N(CCCOC(C)C)C3=O)cc1 (stereo not given)	1.42	1.15	5.23	2.83	-1.78
CC1(C)[C@H]2CC[C@@H](CNC(=O)c3cncc(Br)c3)[C@@H]1C2	-4.12	3.77	-1.18	-11.3	-7.84

SMILES	activity change, negative = inhibition [1] [%]	activity change, negative = inhibition [2] [%]	activity change, negative = inhibition [3] [%]	activity change, negative = inhibition [4] [%]	activity change, negative = inhibition [5] [%]
CC1(C(=O)NC2CCCCCCC2)Cn2c(cc3sccc32)C(=O)N1Cc1cccnc1 (stereo not given)	-15.1	-0.261	-3.82	-4.15	-3.8
CCS(=O)(=O)N1CC(CC#N)(n2cc(-c3ncnc4[nH]ccc34)cn2)C1	3.76	6.68	7.84	-14.6	-13
CC(=O)Nc1c2n(c3ccc(C)cc13)CC(C)(C(=O)NC1CCCCCC1)N(C1CCCC1)C2=O (stereo not given)	-2.86	-0.188	1.42	-1.16	-4.14
Cc1noc(C)c1C(=O)N1CCC2(CC1)CN(C(=O)Cc1cccc(Cl)c1)CCO2	-2.19	-0.348	1.68	-4.95	-5.29
CCCn1c(=O)c2ccc(C(=O)NC3CCCCC3)cc2n2c(=O)n(CC(=O)NC(C)(C)C)nc12	5.08	1.51	11.4	6.09	7.42
CSC(=N)N	5.32	11	0.337	-5.27	6.39
CNC(=O)[C@@H](C1CC1)N1CCC[C@H]1C(=O)N1CCC(C)CC1	-3.72	-7.05	-1.88	-11.8	-4.09
COc1ccc(C(=O)OC2C3C=COC(OC4OC(CO)C(O)C(O)C4O)C3C3(CO)OC23)cc1OC (stereo not given)	0	-1.45	-5.85	-14.2	1.23
CC(C)C1c2cccn2CCN1C(=O)Nc1cccc(C(F)(F)F)c1 (stereo not given)	-2.71	4.53	-5.89	-6.17	-0.296
CC(C)CCn1c(=O)c2ccc(C(=O)NCC(C)C)cc2n2c(=O)n(Cc3c(F)cccc3Cl)nc12	5.49	0.617	7.4	4.78	5.21
CCN1C(=O)c2c(C(=O)NCc3cccc(F)c3)ncn2CC1(C)C(=O)NC1CCCC1 (stereo not given)	-1.07	2.83	6.77	4.16	2.65
CCCn1c(=O)c2ccccc2n2c(SCc3ccccc3)nnc12	-17.9	3.62	4.33	-11.7	1.91
CCC(C)NC(=O)c1ccc2c(=O)n(CCC(C)C)c3n[nH]c(=O)n3c2c1 (stereo not given)	2.63	0	9.35	11.5	1.13
COCCN(C)Cc1cn(Cc2ccccc2)nc1-c1ccc2c(c1)OCO2	-6.66	-11.2	-4.92	-17.6	-14
COc1cccc2c(NCc3ccccc3)nc(-n3c(N)nc4ccccc43)nc12	-1.79	-6.82	-2.76	-32.8	-9.46
CC1(C(=O)NC2CCCCC2)Cn2c(cc3occc32)C(=O)N1C1CCCCC1 (stereo not given)	5.91	1.45	8.21	9.26	2.88
CCc1nc(CN2CCC(N3CCCC(C(=O)NCc4ccccn4)C3)CC2)no1 (stereo not given)	-1.5	2.17	0.554	2.18	-10.5
Cc1nc2c(-c3cnc(N)nc3)nc(N3CCOCC3)nc2n1C(C)C	-10.7	3.22	-11.7	-18.8	-2.25
Nc1nccc(Oc2ccc(NC(=O)c3c[nH]cc(-c4ccc(F)cc4)c3=O)cc2F)c1Cl	-11.2	-21.6	-56.6	-79	-18.3
O=C(NC1CCCCC1)c1ccc2c(=O)n(Cc3ccccc3)c3nn(Cc4ccccc4)c(=O)n3c2c1	-1.48	-0.363	1.62	-7.52	-3.71

SMILES	activity change, negative = inhibition [1] [%]	activity change, negative = inhibition [2] [%]	activity change, negative = inhibition [3] [%]	activity change, negative = inhibition [4] [%]	activity change, negative = inhibition [5] [%]
CC1=C(CO)C2(C)CCCC(C)(C)C2C(O)C1O (stereo not given)	1.1	-4.7	8.34	-16.1	5.19
Cc1cnc(CCNC(=O)c2n[nH]c(=O)c3ccccc23)n1C1CCCCC1	-10.3	-3.15	-74.1	-11.4	-0.743
CC1CCCCC1NC(=O)C1(C)Cn2c(cc3sccc32)C(=O)N1CCCc1ccccc1 (stereo not given)	-0.841	0	1.27	-2.65	1.6
CN1CCC(N2CCC[C@H]2c2nc(-c3ccc(OC4CCCCC4)nc3)no2)CC1	-6.32	-2.47	-23.8	-9.95	2.75
CCC(C)NC(=O)c1ccc2c(=O)nc3c(-c4cccc(C)c4)n[nH]n3c2c1 (stereo not given)	-11.4	2.82	-3.7	-1.02	-8.62
O=C(NCCc1ccc(F)cc1)c1cc(-c2ccccc2)c2nncn2n1	-9.51	-4.64	-6.67	-8.17	-3.43
CC(C)CCNC(=O)c1cc2n(n1)CC(C)(C(=O)NC1CCCCCC1)N(C)C2=O (stereo not given)	0.917	0	2.97	-8.19	-3.1
CCC(c1cnn(C)c1)n1ccnc1-c1cc(F)c(OC)c(Cl)c1 (stereo not given)	-1.92	-0.352	-0.956	-6.14	11.7
Cc1ccc(C2Nc3c(ccc(C(=O)O)c3C)C3C=CCC32)cc1 (stereo not given)	-31.4	0	3.85	2.4	-14.9
O=C(N1CCCCCC1)C1(CCO)CCN(c2ncccn2)C1 (stereo not given)	-3.65	-6.08	-3.74	-7.1	3.31
O=C(Cn1nc2nc(Nc3ccc(F)cc3)ccn2c1=O)Nc1cc(F)ccc1F	-4.29	-4.83	-0.506	-19.1	-7.66
COc1ccccc1CNC(=O)C1c2c(n(C)c3ccccc23)SCC(=O)N1c1ccc(Cl)cc1 (stereo not given)	11.7	0	3.35	0.451	7.62
COc1ccc(OC)c2c1cc1n2CC(C)(C(=O)NC2CCCC2)N(Cc2ccco2)C1=O (stereo not given)	-2.35	0	1.01	3.3	-0.72
CC1CC(C)CN(S(=O)(=O)c2ccc3c(c2)oc(=O)n3CC(=O)NCCc2ccccc2)C1 (stereo not given)	-8.01	-0.204	-7.41	-2.13	-26.8
Cc1cc(=O)oc2cc(CN(C)CC(C)N3CCOCC3)ccc12 (stereo not given)	-6.76	-6.76	-10.1	-12.7	-9.11
CCC(C)C1NC(=O)C(Cc2ccccc2)NC(=O)C(CCCCCC(=O)C(O)CO)NC(=O)C2CCCCN2C1=O (stereo not given)	2.57	-2.73	4.56	-12	2.5
COc1ccc(N2C(=O)c3cc4occc4n3CC2(C)C(=O)NC2CCCC(C)C2C)cc1Cl (stereo not given)	-1.63	0	5.75	3.24	-0.605
COCCOCc1nc(C2CCCN2C(=O)c2ccccn2)no1 (stereo not given)	-1.27	1.86	1.61	-0.812	-2.71
COc1ccc(NC(=O)Cn2nc3n(Cc4ccc(C)cc4)c(=O)c4ccccc4n3c2=O)cc1	4.79	6.5	12	3.76	3.12
CC1(C(=O)NC2CCCCC2)Cn2nc(-c3cccs3)cc2C(=O)N1Cc1ccc(F)cc1 (stereo not given)	2.36	0	8.8	1.73	1.81

— PubChem BioAssay AID1745853 (National Center for Advancing Translational Sciences (NCATS), 2022)
